Experimental data from ChEMBL document CHEMBL4888484, “Replenishing the malaria drug discovery pipeline: Screening and hit evaluation of the MMV Hit Generation Library 1 (HGL1) against asexual blood stage Plasmodium falciparum ,using a nano luciferase reporter read-out” (2022).
Out of some 150,000 compounds screened, about 540 (0.36%) showed an effect of 50% or more. The list shows a part of the results.

These compounds were tested on Plasmodium falciparum (assay: Primary screen in NF54 nanoGlo assay, in single point, at 2uM, 72h; a lower Z score goes with more inhibition). Details: timepoint 72 hour.
Format: functional, Erythrocyte
CC(C)c1ccc(S(=O)(=O)N2CCC(C(=O)N[C@H](c3ccccc3F)c3nccn3C)CC2)cc1 was tested, and the “% Inhibition” value was -7% and the Z score was 0.56. Cc1ccc(NC(=O)N2CC(n3cc(CO)nn3)C2)cc1C was tested, and the “% Inhibition” value was -1% and the Z score was 0.22. With COCC[C@]1(NC(=O)c2ccc(F)cc2)CCN(C(=O)COC)C1 the “% Inhibition” value was -1% and the Z score was 0.06. For C[C@H]1C(=O)NCCN1C(=O)Nc1ccccc1CC(=O)OC(C)(C)C, the “% Inhibition” value was 0% and the Z score was -0.03. With CCc1nsc(N2CCOC[C@@H]2C)n1 the “% Inhibition” value was 3% and the Z score was -0.49. With Cc1nc(-c2cc3ccccc3nc2N2CCNCC2)no1 the “% Inhibition” value was -15% and the Z score was 2.92. With CC(C)(NC(=O)c1ccccc1)c1nc(-c2cccnc2Oc2ccccc2)no1 the “% Inhibition” value was 29% and the Z score was -3.23. With CN(C)C(=O)CN1CCC2(CC1)C[C@@H](c1ccccc1)C(=O)N(C)C2 the “% Inhibition” value was -4% and the Z score was 0.82. For Cc1ccccc1N1CCN(c2ncccc2CNc2ncccc2C(=O)O)CC1, the “% Inhibition” value was -12% and the Z score was 2.05. In the case of Cc1noc2nc(C3CC3)cc(C(=O)NC3CCC(O)CC3)c12 (stereo not drawn), the “% Inhibition” value is reported as 5% and the Z score is reported as -0.71. In the case of Cc1cc(C)n(C)c(=O)c1C(=O)N1CCC[C@H](c2nnc3ccccn23)C1, the “% Inhibition” value is reported as 7% and the Z score is reported as -1.26. COc1ccccc1CNC(=O)Cn1ccc2ncccc2c1=O was tested, and the “% Inhibition” value was -7% and the Z score was 0.9. For COCCO[C@H]1[C@H](NC(=O)C(C)C)c2ccccc2C12CCN(Cc1cc(C)c(OC)cc1C)CC2, the “% Inhibition” value was 13% and the Z score was -1.7. c1cc2c(o1)CCCN(Cc1nc(C3CC3)no1)C2 was tested, and the “% Inhibition” value was -4% and the Z score was 0.52. For COc1cccc(NC(=O)Cn2nc3ncccn3c2=O)c1, the “% Inhibition” value was -1% and the Z score was 0.07. In the case of O=C(CCn1nnc2ccccc2c1=O)N1CCN2CCC1C2 (stereo not drawn), the “% Inhibition” value is reported as 8% and the Z score is reported as -1.01. For O=C(c1ccccn1)N1CC(n2cc(COc3ccncc3)nn2)C1, the “% Inhibition” value was 0% and the Z score was 0.01. O=C(NCCCN1CCCCC1)c1cccc(-c2ccc(NCc3ccccc3)nn2)c1 was tested, and the “% Inhibition” value was -6% and the Z score was 1.16. For CO[C@@H](C)CS(=O)(=O)Oc1ccc(-n2ccnc2)cc1, the “% Inhibition” value was -4% and the Z score was 0.53. With O=C(NCc1cncc(O)c1)[C@H]1C[C@@H]1c1c(F)cccc1Cl the “% Inhibition” value was -10% and the Z score was 1.92. With c1ccc(Oc2ccc(-n3nnnc3N3CCC[C@H](c4ncc[nH]4)C3)cc2)cc1 the “% Inhibition” value was -33% and the Z score was 2.9. For Cc1cc(C(=O)Nc2nnc([C@H]3CC(=O)N(c4ccccc4)C3)o2)c(C)o1, the “% Inhibition” value was -8% and the Z score was 1.2. C[C@H]1Cc2ccccc2N1Cc1ccncc1Cl was tested, and the “% Inhibition” value was -1% and the Z score was 0.21. With COCC1(NC(=O)c2cc(C)n([C@@H](C)C3CC3)n2)CCOCC1 the “% Inhibition” value was 0% and the Z score was 0.04. In the case of CCc1csc(CNc2ccc3cc[nH]c3n2)n1, the “% Inhibition” value is reported as 4% and the Z score is reported as -0.43. In the case of Cc1csc([C@H](C)N(C)C(=O)c2cnn(-c3ccccc3)c2)n1, the “% Inhibition” value is reported as -4% and the Z score is reported as 0.81. In the case of Cn1cc(C(NC(=O)CCn2nnc3ccccc32)[C@H]2C[C@@H](O)C2)cn1 (stereo partly drawn), the “% Inhibition” value is reported as -13% and the Z score is reported as 2.55. For COCc1cccc(CC(=O)N2CCC[C@@](O)(c3c[nH]nn3)C2)c1, the “% Inhibition” value was 4% and the Z score was -0.52. For CCCC(=O)OC1CC(n2cc(C)c(=O)[nH]c2=O)OC1CO (stereo not drawn), the “% Inhibition” value was 8% and the Z score was -1.2. In the case of CCn1cnnc1C1CCN(CC(=O)Nc2cc(C3CCCC3)nn2-c2ccccc2)CC1, the “% Inhibition” value is reported as -11% and the Z score is reported as 1.15. For Cc1c(CN(C)C(=O)CN2C(=O)NC(=O)C2(C)C)cnn1C, the “% Inhibition” value was -15% and the Z score was 1.54. For CS(=O)(=O)c1ccnc(NC(=O)N(Cc2ccoc2)C2CC2)c1, the “% Inhibition” value was -2% and the Z score was 0.47. With CC(=O)NCC(=O)N(Cc1ccco1)C1(C(=O)NC2CCCCC2)CCCCC1 the “% Inhibition” value was 37% and the Z score was -4.75. In the case of c1ccc(Cc2nc(Cn3nnc(-c4ccccc4)n3)no2)cc1, the “% Inhibition” value is reported as -3% and the Z score is reported as 0.52. For Cc1csc(C(=O)NCc2nc(C)no2)c1, the “% Inhibition” value was -13% and the Z score was 1.91. With CN1C(=O)C[C@H](NC(=O)c2c(Cl)cccc2OCC2CC2)C1=O the “% Inhibition” value was 2% and the Z score was -0.31. CCS(=O)(=O)Nc1cc(C2CCCC2)nn1C was tested, and the “% Inhibition” value was -14% and the Z score was 1.38. For CCn1cc(C(=O)N2CC[C@H](N(CCN3CCCCC3)C(=O)N(C)C)C2)c(C)n1, the “% Inhibition” value was 0% and the Z score was 0.03. With CCCc1ccc(CN2CCC3(CCC(=O)N(CCc4c[nH]cn4)C3)CC2)o1 the “% Inhibition” value was 0% and the Z score was 0.02. For Cc1ccc(OCc2cccc(C(=O)N3CCN4CCC[C@H]4C3)c2)cn1, the “% Inhibition” value was -13% and the Z score was 1.62. With COc1ccc(C2Nc3cccc4cccc(c34)N2)cc1OCc1ccccc1 the “% Inhibition” value was -5% and the Z score was 0.81. In the case of CCCC[C@H](C)N1CCC(Oc2c(F)cccc2F)(C(=O)O)CC1, the “% Inhibition” value is reported as -11% and the Z score is reported as 1.56. In the case of CCn1ccnc1CN1CC[C@@]2(CCCN(C(=O)c3ccccc3C)C2)C1, the “% Inhibition” value is reported as 1% and the Z score is reported as -0.14. O=C(NCC1(N2CCOCC2)CCCCC1)N1CCC1 was tested, and the “% Inhibition” value was -6% and the Z score was 0.63. CC(C)[C@H](NC(=O)c1ccc(Cl)cc1-n1cnnn1)c1nc2ccccc2n1C(C)C was tested, and the “% Inhibition” value was 7% and the Z score was -0.83. With COc1ccccc1Nc1nc2sc(C(=O)Nc3ncccc3C)cc2s1 the “% Inhibition” value was -5% and the Z score was 0.9. Cc1[nH]c2ccc(-c3noc([C@@H]4CN(C)CCO4)n3)cc2c1C was tested, and the “% Inhibition” value was 0% and the Z score was 0.07. For COc1ccc(N2CCn3c(nc4ccccc43)C2)cc1NC(=O)C1CCCCC1, the “% Inhibition” value was 26% and the Z score was -3.48. For CCC(=O)Nc1ccc(C)c(NC(=O)N2CCC[C@@H]2CN(C)c2ccccc2)c1, the “% Inhibition” value was -3% and the Z score was 0.27. In the case of O=C(c1ccncc1Cl)N1CCC2(CC1)Cc1cn(nn1)CCCOc1ccc(cc1)CCNC2=O, the “% Inhibition” value is reported as 12% and the Z score is reported as -1.6. In the case of CC(C)CCOc1ccc(CCNC(=O)c2cncnc2)cc1, the “% Inhibition” value is reported as -20% and the Z score is reported as 2.18. With O=C(Nc1c(-c2cccc(F)c2)n[nH]c1C1CC1)c1ccccc1F the “% Inhibition” value was 19% and the Z score was -2.31. CCC(=O)N(C)c1nc2ccccc2n(CC(=O)Nc2ccccc2Br)c1=O was tested, and the “% Inhibition” value was -6% and the Z score was 0.92. In the case of O=S(=O)(C1CCCCC1)N1CCC(COc2cc(C3CC3)ncn2)CC1, the “% Inhibition” value is reported as -22% and the Z score is reported as 2.54. In the case of COCc1nc([C@H]2CCN(S(=O)(=O)Cc3ccccc3F)C2)no1, the “% Inhibition” value is reported as -6% and the Z score is reported as 1.21. For Cc1cccc(CN2CCCn3nc(C(=O)NCCCN4CCCCC4)cc3C2=O)c1, the “% Inhibition” value was -6% and the Z score was 1.11. O=C1CCC(=O)N1Cc1ccccc1NC1CC(c2ccccc2)C1 (stereo not drawn) was tested, and the “% Inhibition” value was -6% and the Z score was 0.53. Cc1ncsc1C(=O)N1CC(c2ccccc2)C(c2ncon2)C1 (stereo not drawn) was tested, and the “% Inhibition” value was -4% and the Z score was 0.8. In the case of Cc1nnc([C@H](C)N2CCC3(CC2)OCCc2ccsc23)o1, the “% Inhibition” value is reported as 0% and the Z score is reported as 0.02. Cc1cccc(NC(=O)N2CCCC[C@@H]2CO)c1 was tested, and the “% Inhibition” value was 0% and the Z score was -0.01. CN1CCCC[C@@H](c2nc(-c3cn[nH]c3)no2)C1=O was tested, and the “% Inhibition” value was -3% and the Z score was 0.37. With CN(C)Cc1csc(CNC(=O)Nc2ccn(C)c(=O)c2)n1 the “% Inhibition” value was -4% and the Z score was 0.51. O=C([C@H]1CCS(=O)(=O)C1)N1CCC(Cc2ccccc2)CC1 was tested, and the “% Inhibition” value was -14% and the Z score was 1.87. CC(=O)c1c(F)cc(F)cc1OCc1nccn1CC(F)(F)F was tested, and the “% Inhibition” value was 22% and the Z score was -2.5. With C[C@H]1CCc2c(cnc3c(C(=O)NCc4cccc(F)c4)cnn23)C1 the “% Inhibition” value was -3% and the Z score was 0.43. In the case of O=C(NCC1CCOCC1)c1ccc(-c2cc3ccccc3[nH]c2=O)cc1, the “% Inhibition” value is reported as -21% and the Z score is reported as 2.34. CCn1c(C(O)(c2ccccc2)c2nc3ccccc3n2CC)nc2ccccc21 was tested, and the “% Inhibition” value was 9% and the Z score was -1.02. In the case of CC(NC(=O)C1CCN(c2ccc(Br)cc2F)C1=O)c1ccccc1 (stereo not drawn), the “% Inhibition” value is reported as -9% and the Z score is reported as 0.83. Cc1n[nH]c([C@@H]2CN(Cc3cc(F)ccc3Cl)CCO2)n1 was tested, and the “% Inhibition” value was -10% and the Z score was 1.26. CNC(=O)[C@H]1CN(C(=O)Cc2cccc(C)c2)C[C@@H]1NC(C)=O was tested, and the “% Inhibition” value was 4% and the Z score was -0.49. With CCc1cc(C2CC2)nc(NS(=O)(=O)c2cncc(F)c2)n1 the “% Inhibition” value was -10% and the Z score was 1.87. C=CCn1c(=O)sc2cc(NC(=O)C(C)(C)C)ccc21 was tested, and the “% Inhibition” value was 4% and the Z score was -0.5. With C[C@H](NCc1ncnn1CC(F)F)c1cccc(C2CC2)c1 the “% Inhibition” value was -9% and the Z score was 1.77. With COC(CNS(=O)(=O)c1ccc(NC(C)=O)cc1)OC the “% Inhibition” value was 6% and the Z score was -0.83. With Cc1ccc(NC(=O)CCNc2cnc3cnccn23)cc1Cl the “% Inhibition” value was -13% and the Z score was 1.86. For O[C@H](COc1cccc2[nH]ccc12)Cn1cnc2cc(F)c(F)cc21, the “% Inhibition” value was 9% and the Z score was -1.09. With Cc1ccc(CN=C(N(C)C)N(C)C)s1 the “% Inhibition” value was 3% and the Z score was -0.36. With CN(Cc1nccn1C)C(=O)C(=O)Nc1cc(F)ccc1F the “% Inhibition” value was 1% and the Z score was -0.07. Cc1c(C2=CCN(S(=O)(=O)c3ccc(CC(C)C)cc3)CC2)c2ccccc2n1Cc1cccc(F)c1 was tested, and the “% Inhibition” value was -8% and the Z score was 1.03. With C[C@@H](C1CC1)N(C)C(=O)c1cccn(Cc2ccc(F)cc2F)c1=O the “% Inhibition” value was 5% and the Z score was -0.92. With CCn1ncc(-c2cc(C(F)(F)F)nc(NC3CCCC3)n2)c1C the “% Inhibition” value was -28% and the Z score was 3.32. COc1ccccc1CN1C(=O)[C@H](CC(=O)N2CCc3ccccc3C2)N=C1O was tested, and the “% Inhibition” value was -5% and the Z score was 0.69. With CCCc1cnc(C)nc1NC[C@H]1CC[C@H](C(=O)NC)CC1 the “% Inhibition” value was 2% and the Z score was -0.26. Cc1ccc(N2CCOC2=O)c(-c2ccncc2)c1 was tested, and the “% Inhibition” value was -9% and the Z score was 1.5.
